Source: article PMC5998136
Results are given in words; binding and its absence hold for the method and conditions named. In cells and extracts the contact can be indirect. Some results given as binding are weak or reduced against the parent protein; the word gives no strength.

Sequences of proteins named here, by UniProt entry; tags and fusion partners are left off. A change or cut given only in a name is not applied to a line headed by its entry. A line that says so, or that is headed by a name, gives the form on record, which may keep a tag or linker. Residues count along the entry.
UniProt Q04207: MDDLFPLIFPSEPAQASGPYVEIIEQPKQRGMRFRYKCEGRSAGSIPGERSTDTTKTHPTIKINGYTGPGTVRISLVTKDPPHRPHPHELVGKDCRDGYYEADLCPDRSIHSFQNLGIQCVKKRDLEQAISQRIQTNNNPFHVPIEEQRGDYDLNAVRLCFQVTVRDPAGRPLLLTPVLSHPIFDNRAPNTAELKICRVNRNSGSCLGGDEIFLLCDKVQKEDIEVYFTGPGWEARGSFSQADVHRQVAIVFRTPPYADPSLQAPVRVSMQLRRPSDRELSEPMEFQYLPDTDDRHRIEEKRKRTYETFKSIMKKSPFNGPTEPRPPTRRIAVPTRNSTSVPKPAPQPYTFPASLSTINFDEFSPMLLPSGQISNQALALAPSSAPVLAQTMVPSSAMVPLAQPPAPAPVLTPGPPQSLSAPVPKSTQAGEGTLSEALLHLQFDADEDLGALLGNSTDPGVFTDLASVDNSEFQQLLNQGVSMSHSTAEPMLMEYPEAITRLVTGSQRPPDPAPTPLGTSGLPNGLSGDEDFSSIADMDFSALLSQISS
UniProt O54943: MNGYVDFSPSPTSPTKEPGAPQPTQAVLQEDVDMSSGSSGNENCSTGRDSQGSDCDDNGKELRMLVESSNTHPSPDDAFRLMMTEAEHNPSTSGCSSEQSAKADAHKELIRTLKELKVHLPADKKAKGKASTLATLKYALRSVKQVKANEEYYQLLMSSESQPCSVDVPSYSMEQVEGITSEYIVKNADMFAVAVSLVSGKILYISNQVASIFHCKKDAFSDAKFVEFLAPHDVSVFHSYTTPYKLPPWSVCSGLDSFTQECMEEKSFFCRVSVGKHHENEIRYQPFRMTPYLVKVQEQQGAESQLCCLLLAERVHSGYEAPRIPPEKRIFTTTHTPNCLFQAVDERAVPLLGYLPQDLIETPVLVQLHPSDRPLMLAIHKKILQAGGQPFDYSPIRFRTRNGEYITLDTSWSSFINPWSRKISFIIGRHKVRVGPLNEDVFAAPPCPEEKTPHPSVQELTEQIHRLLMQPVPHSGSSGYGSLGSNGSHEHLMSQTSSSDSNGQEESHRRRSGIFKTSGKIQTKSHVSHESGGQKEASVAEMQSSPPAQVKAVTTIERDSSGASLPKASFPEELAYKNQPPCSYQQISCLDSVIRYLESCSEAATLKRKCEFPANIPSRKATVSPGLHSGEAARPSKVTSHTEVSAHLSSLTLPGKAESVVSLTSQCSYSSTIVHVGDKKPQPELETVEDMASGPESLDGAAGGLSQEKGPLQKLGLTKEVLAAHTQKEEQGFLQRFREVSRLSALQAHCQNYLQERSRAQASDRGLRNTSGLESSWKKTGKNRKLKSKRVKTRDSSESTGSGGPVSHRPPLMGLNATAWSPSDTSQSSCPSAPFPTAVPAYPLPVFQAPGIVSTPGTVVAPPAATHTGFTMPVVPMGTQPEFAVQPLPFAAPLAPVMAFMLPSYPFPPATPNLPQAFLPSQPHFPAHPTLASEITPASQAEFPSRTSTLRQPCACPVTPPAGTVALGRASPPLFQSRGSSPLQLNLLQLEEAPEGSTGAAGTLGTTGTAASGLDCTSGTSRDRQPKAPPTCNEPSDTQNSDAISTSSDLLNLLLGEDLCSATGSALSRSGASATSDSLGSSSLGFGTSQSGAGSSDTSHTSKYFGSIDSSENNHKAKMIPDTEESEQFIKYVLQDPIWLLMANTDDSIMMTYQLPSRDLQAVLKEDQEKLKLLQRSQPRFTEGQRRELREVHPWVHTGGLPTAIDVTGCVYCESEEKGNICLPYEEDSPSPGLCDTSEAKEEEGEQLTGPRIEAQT
Mutated PER2 protein (lacking amino acid residues 348-434) (O54943, form named): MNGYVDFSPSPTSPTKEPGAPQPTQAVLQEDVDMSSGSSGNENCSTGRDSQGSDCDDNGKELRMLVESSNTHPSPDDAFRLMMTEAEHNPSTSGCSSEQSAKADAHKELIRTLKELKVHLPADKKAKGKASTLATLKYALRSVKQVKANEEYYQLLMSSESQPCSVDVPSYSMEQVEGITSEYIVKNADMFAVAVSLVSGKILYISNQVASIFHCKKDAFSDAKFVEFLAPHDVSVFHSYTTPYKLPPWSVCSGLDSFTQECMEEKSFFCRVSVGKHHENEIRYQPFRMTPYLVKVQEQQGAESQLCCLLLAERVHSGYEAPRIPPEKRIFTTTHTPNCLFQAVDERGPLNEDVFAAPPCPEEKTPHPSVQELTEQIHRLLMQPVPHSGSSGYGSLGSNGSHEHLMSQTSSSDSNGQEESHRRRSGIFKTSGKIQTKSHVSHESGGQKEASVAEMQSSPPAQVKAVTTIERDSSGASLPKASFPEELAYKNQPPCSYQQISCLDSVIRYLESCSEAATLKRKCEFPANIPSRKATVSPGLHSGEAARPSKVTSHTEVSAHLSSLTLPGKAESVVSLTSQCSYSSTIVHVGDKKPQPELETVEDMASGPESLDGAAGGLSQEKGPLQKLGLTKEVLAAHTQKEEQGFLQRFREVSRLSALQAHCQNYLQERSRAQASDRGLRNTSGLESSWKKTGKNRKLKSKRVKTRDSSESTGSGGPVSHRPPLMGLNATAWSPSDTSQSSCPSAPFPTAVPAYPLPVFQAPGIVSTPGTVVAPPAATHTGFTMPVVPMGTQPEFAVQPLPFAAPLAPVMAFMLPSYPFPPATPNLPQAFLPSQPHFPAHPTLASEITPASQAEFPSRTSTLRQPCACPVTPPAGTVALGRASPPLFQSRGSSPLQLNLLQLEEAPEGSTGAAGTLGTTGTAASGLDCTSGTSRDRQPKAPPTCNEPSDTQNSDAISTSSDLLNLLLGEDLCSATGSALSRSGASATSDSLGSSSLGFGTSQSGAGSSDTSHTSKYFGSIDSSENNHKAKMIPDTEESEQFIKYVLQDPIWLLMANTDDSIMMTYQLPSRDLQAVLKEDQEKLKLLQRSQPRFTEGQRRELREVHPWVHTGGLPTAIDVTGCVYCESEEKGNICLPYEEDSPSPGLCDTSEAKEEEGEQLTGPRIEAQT

How the values were obtained:
[1] = target: v-rel reticuloendotheliosis viral oncogene homolog A (p65) (mouse (endogenous in mouse liver)) (UniProt Q04207); experiment: co-IP; hepatic nuclear extracts prepared at ZT2 and ZT14 from wild-type and Per2m/m mice; IP with anti-p65 antibodies on protein A/G agarose (Crosslink immunoprecipitation kit), 4 °C overnight; blot for PER2 and p65
[2] = target: PERIOD2 (mouse (endogenous in mouse liver)) (UniProt O54943); experiment: co-IP; hepatic nuclear fraction of wild-type mice, two times of day; IP with anti-PER2 antibodies (Supplementary Fig. 3)
[3] = target: T1, fatty acid transport protein-5 (mouse (endogenous in mouse liver)) (UniProt Q4LDG0); experiment: co-IP; hepatic membrane fractions; IP with anti-EZRIN and anti-FATP5 antibodies (Supplementary Fig. 5)
T1 sequence: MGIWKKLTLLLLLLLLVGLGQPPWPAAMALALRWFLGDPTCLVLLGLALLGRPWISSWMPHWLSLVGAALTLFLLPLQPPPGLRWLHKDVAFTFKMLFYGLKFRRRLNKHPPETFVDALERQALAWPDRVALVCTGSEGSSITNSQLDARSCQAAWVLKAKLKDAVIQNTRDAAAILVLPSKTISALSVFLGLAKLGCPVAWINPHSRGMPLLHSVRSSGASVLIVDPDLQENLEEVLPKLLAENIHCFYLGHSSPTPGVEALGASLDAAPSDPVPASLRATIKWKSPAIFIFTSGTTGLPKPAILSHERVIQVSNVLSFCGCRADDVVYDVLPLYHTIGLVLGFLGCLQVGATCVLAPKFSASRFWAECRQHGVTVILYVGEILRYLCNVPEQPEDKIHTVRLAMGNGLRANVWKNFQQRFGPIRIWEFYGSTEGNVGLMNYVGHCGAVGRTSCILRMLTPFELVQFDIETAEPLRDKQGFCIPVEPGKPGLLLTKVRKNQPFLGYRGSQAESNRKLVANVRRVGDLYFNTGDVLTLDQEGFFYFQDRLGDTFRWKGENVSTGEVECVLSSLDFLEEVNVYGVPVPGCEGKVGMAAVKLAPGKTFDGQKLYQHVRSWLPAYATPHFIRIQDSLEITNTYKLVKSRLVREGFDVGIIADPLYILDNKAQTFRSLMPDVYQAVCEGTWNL

[4] = target: T2, Na+/H+ exchanger regulatory factor-1 (mouse (endogenous in mouse liver)) (UniProt P70441); experiment: co-IP; hepatic membrane fractions of wild-type mice at two times of day; IP with anti-NHERF1 antibodies on protein A/G agarose, 4 °C overnight; western blot for FATP5 and EZRIN
T2 sequence: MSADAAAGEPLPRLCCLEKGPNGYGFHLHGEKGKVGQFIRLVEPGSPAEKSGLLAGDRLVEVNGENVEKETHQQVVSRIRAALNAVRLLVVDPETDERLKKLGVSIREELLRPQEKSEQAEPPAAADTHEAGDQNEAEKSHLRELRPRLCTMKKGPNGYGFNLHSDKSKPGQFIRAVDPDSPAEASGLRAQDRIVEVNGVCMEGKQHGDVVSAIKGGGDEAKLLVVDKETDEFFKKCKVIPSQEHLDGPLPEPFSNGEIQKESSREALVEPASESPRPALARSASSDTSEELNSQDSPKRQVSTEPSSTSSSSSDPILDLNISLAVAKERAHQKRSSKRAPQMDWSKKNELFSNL

Mutated PER2 protein (lacking amino acid residues 348-434) (from UniProt O54943 1-1257)
binding [1]: no binding

PERIOD2 (from UniProt O54943 1-1257)
binding [1]: binds

v-rel reticuloendotheliosis viral oncogene homolog A (p65) (from UniProt Q04207 1-549)
binding [2]: binds

B1: Na+/H+ exchanger regulatory factor-1 (protein, UniProt P70441-1 1-355)
chain: T2 sequence
binding [3]: binds

B2: fatty acid transport protein-5 (protein, UniProt Q4LDG0 1-689)
chain: T1 sequence
binding [4]: binds
